# Measurements: the supplement of paper PMC3334620
# Over roughly 33,000 sequences, “E-score (-0.5 to 0.5)” has its median near -0.012; the highest 2% begin near 0.29. The list shows a part of the results.
# Molecular target: T1, Ybr033w (UniProt P38073)
# T1 sequence: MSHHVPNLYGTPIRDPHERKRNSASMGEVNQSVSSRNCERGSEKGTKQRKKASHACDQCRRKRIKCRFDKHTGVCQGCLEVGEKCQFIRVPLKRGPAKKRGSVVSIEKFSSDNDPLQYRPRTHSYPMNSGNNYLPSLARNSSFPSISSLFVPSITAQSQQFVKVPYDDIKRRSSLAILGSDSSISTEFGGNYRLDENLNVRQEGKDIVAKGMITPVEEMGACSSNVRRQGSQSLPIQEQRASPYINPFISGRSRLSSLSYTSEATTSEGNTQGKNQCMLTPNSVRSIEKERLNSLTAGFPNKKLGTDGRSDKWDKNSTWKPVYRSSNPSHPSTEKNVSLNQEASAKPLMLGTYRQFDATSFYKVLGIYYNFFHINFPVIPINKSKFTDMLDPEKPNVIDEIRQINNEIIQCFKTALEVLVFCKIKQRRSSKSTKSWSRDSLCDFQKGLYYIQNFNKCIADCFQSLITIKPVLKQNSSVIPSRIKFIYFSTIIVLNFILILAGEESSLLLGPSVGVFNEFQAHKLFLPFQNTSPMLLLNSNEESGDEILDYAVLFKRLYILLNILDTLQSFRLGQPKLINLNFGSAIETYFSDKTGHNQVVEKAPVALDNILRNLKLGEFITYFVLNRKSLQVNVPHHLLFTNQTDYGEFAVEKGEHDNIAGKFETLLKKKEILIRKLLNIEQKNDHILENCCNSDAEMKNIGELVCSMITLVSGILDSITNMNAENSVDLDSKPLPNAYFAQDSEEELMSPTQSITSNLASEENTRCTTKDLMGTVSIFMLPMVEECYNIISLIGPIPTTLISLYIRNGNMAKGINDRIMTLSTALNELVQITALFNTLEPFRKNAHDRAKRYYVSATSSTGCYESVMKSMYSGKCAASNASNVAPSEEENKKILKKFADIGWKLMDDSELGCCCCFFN
# Assay: PBM E-score (8-mer binding enrichment) (E-score (-0.5 to 0.5)); higher = stronger / more preferred TF binding; most listed sequences are background and not binding sites
# Conditions: protein concentration: 200 nM; construct: GST-full length
# How it was run: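 Bound GST-tagged yeast transcription factors, applied at about 100-200 nM to double-stranded universal all-10-mer Agilent arrays, were detected with fluorescent anti-GST. Scans were normalised with masliner. A modified Wilcoxon-Mann-Whitney statistic, the E-score, was assigned to each ungapped eight-base word pooled with its reverse complement by the Universal PBM Analysis Suite.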
row,Sequence,PBM E-score
1,TACGTCCA,-0.0957
2,CATGAAAC,0.0906
3,ATCTGTAC,0.166
4,ACGGCGAA,-0.0227
5,GTCGACGA,0.00328
6,CCCTGGTA,-0.22
7,CAACCTAA,0.198
8,GAAAGGCA,0.0425
9,GGAGTGGA,0.105
10,CTGGTGCC,-0.155
11,TGGACGAA,-0.0336
12,CGTTGAGC,0.00379
13,ACGCCCGT,-0.0902
14,ATACCATA,0.297
15,CGACACCG,-0.167
16,AGCTATGG,-0.121
17,CATTAAGG,0.102
18,AAATAACT,0.294
19,CTGCTTTA,0.269
20,CACCTGAA,0.149
21,GGACAGTA,0.138
22,CTACCGGA,-0.0344
23,CACCTATC,-0.0279
24,TCGGTTCA,-0.0353
25,GCTCGACC,-0.134

row,Sequence,PBM E-score
1,CGGACTTC,-0.171
2,TAAAATAA,0.261
3,ACAGTAAT,0.233
4,AAGTCGCG,0.0728
5,AACGAGCG,-0.17
6,GATGCTCA,-0.113
7,AATCTGGC,0.00473
8,ATTCTGCG,-0.0245
9,AGGGCAGG,-0.163
10,CGGGAGGA,-0.0519
11,GATGGCGA,0.0807
12,AGAATACA,0.121
13,AATATCGT,0.33
14,GTAGACCA,0.0341
15,ATTGGATA,0.223
16,CGTTTCAA,-0.0281
17,TGCTAACA,0.154
18,ATCTTATG,0.0675
19,ACCTGGCA,-0.0945
20,AAATTTCA,-0.0112
21,ACTGGGTA,-0.0447
22,TACCACTA,0.105
23,AAGAAACA,0.201
24,ACCAGTAT,-0.104
25,GGGCACCC,-0.248

row,Sequence,PBM E-score
1,ATCAAATC,0.0507
2,CAGGACAG,-0.0027
3,GAGGCCAA,-0.128
4,CCGATTAC,-0.0157
5,AATTGAGA,0.0659
6,GCACGGCC,-0.169
7,ATGGGACA,-0.128
8,ACTTACTC,0.0333
9,CATTAGAA,0.167
10,ACATTAGC,0.181
11,ACTATGAT,0.102
12,CGCCCGTA,-0.327
13,CGCCTCGC,-0.13
14,ATTTATAG,0.0429
15,AATGATCG,-0.046
16,AGCTTGTC,-0.107
17,ACCACGAG,0.0793
18,ATATTACG,0.333
19,CGGACGCA,-0.0392
20,CCACCCCA,-0.0528
21,CATAAGTA,0.0645
22,CAAACTGA,0.14
23,AATGGTAA,0.234
24,CGACCGCG,-0.133
25,ACACACCT,-0.00793

row,Sequence,PBM E-score
1,GAAATAAA,0.247
2,CGCCTGAG,-0.039
3,CGATCACA,0.168
4,GAGACATA,0.146
5,GCATTCAA,0.154
6,GCTGTTGA,-0.00862
7,CCCTAATA,0.00892
8,GTGTGCAA,-0.13
9,ACGATGAG,0.113
10,GAGACCAA,0.0622
11,CTACAGCA,0.0371
12,CAATGACA,0.14
13,GATCTTCA,0.0894
14,GCCTTTTA,-0.102
15,ACTAAAAA,0.238
16,AATTAAGA,0.171
17,CGTTCTAG,-0.0499
18,CTAGACAG,-0.0284
19,CTCGAAAG,-0.0118
20,ACTCCCAA,-0.0182
21,ACTAGTAC,0.0281
22,GAGTCTGC,-0.23
23,AAGCTGTC,-0.0872
24,CCCTAACA,0.111
25,GAACGTAA,0.182

row,Sequence,PBM E-score
1,CAGCCTTC,-0.0807
2,AGTCCCGC,-0.35
3,ACGTTGGA,0.0581
4,GTACTGGA,0.135
5,CCAAGTAC,-0.101
6,AGGCCCTC,-0.217
7,AACGAGAT,-0.0468
8,GATTCTCA,0.0255
9,AGAACGTC,-0.0127
10,AGGGACGC,-0.108
11,ACCTGCGC,0.0485
12,AGGCATCG,-0.0542
13,GAGGGCCA,-0.161
14,AAAACGCC,0.0866
15,ACCTCTTC,0.156
16,GCTATCTA,-0.213
17,CTGTTGCA,0.0729
18,AGACTGGC,-0.155
19,AAAACACT,0.169
20,CTTCACTC,-0.0348
21,GGCTTACC,-0.183
22,CGTTAAGC,-0.0125
23,CGGTATAA,0.0894
24,CGGTTAAC,-0.115
25,ATATCCTG,0.0849

row,Sequence,PBM E-score
1,AGGCCTAC,-0.0682
2,AAGCCGTG,-0.135
3,CGGGTTTC,0.0357
4,AACAGATT,0.13
5,GACCTCAC,-0.204
6,CATCGTTA,-0.0287
7,ATTCATTA,0.263
8,CATTGTGG,0.116
9,TCCCAGCA,-0.042
10,AGAAAACA,0.218
11,ACAAATGC,0.161
12,CGGAAACC,-0.142
13,AAAGGACA,0.0726
14,GTCATGGA,-0.00482
15,TAGCCGCA,-0.201
16,GTAAAGAC,0.00317
17,CCCTCAAA,-0.0244
18,ATTAATTC,0.291
19,AGGGATCA,0.169
20,AGCAACCC,-0.239
21,GTGAGAAC,-0.0982
22,CACTGAGC,-0.0483
23,AACGGGGT,-0.308
24,GAAGCGAA,0.107
25,AGTATCGG,0.144

row,Sequence,PBM E-score
1,ACATTCGT,0.0954
2,ACAGACTG,-0.0639
3,TCACACGA,-0.00326
4,ATGATTAA,0.231
5,GCCCTGAC,-0.184
6,TACACTGA,-0.0494
7,CACCTATA,0.0106
8,AGACGTCG,-0.119
9,GACGGTAA,-0.139
10,ACAAAGGA,0.0792
11,CAATTAGG,0.0673
12,CTCCAATA,0.164
13,ATCGGCCG,-0.104
14,ATAGAGAA,0.167
15,CCCGATGA,0.037
16,TATGGCGA,-0.168
17,ACAGGCAC,-0.222
18,CAGTCAAA,0.113
19,ACTCTGAA,0.1
20,AATACCGA,-0.0395
21,CTAATCGA,0.0895
22,CGTGACTA,0.137
